The campaign covered roughly 420,000 compounds. About 64,000 (15%) were called active. The inconclusive results got no clear call from the source; some entries with a clear call stand among them for comparison. Calls come from the whole dose curve; as a rule, active = well fitted inhibition curve with a large enough effect; inconclusive = small, poorly fitted or top-dose-only effect; inactive = flat fitted curve, though single readings scatter. No potency is given beside an inconclusive call; the fits are too rough.
test: qHTS for Inhibitors of human tyrosyl-DNA phosphodiesterase 1 (TDP1): qHTS in cells in absence of CPT; conditions: DT40 Tdp1-/- hTDP1 cells, no CPT, ATP luminescence, 48 h; activity change, negative = growth inhibition: at 46.2 µM (top of the series) unless noted; note: nearly all actives have a fitted effect of over 55% in size
Procedure, shortened: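 Luminescent ATP content (CellTiter-Glo) served as the growth readout. Knockout chicken DT40 cells expressing human TDP1 were exposed to compounds without camptothecin for a minimum 48 hr at 37 °C.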
% is set by controls: 0 for no effect and ±100 for the full control effect; potency is the fitted concentration of half-maximal effect; tags give direction and shape of the fitted curve.

Structure (SMILES)	activity change, negative = growth inhibition	Potency
CCCc1nc2ccccc2c(C(=O)N(CC)CC(=O)NCc2cccs2)c1CC	inactive: -21.6%	–
COc1cc2cc(CN(CCCO)S(=O)(=O)c3ccccc3Cl)c(=O)[nH]c2cc1OC	–	inconclusive [inhibitor, partial curve, poor fit]
O=C1C(Cl)=C(N2CCCCC2)C(=O)N1c1ccccc1Cl	inactive: -23.8%	–
COCCCNC(=O)CCc1c(C)nc2c(-c3ccc(F)cc3)c(C)nn2c1C	inactive: -3.57%	–
CCN(c1ccc(NC(=O)COC(=O)C2CCN(c3ccc(C(F)(F)F)cn3)CC2)cc1)C(C)C	–	inconclusive [inhibitor, single point]
O=C(CC1S/C(=N/N=C/c2ccco2)NC1=O)Nc1cccc(Cl)c1Cl (centres undefined)	inactive: 0.629%	–
COCc1ccc(CN2CCc3c([nH]c4ccccc34)C2C(C)(C)C)o1 (centres undefined)	–	inconclusive [inhibitor, single point]
COc1ccc(C[C@@H]2CN3C(=NC[C@@H]3Cc3ccc(O)cc3)N2C[C@H](C)NC(=O)CCC2CCCCC2)cc1	–	active: 5.17 µM
CCOC(=O)c1ccc(COC(=O)CCc2nc(-c3ccccc3)c(-c3ccccc3)o2)cc1	–	inconclusive [inhibitor, single point]
Cc1ccc(S(=O)(=O)N2CCC(=O)N([C@H](COCc3ccccc3)C(C)C)CC2)cc1	–	inconclusive [inhibitor, partial curve]
CC1CN(C(=S)c2cccc([N+](=O)[O-])c2)CC(C)O1 (centres undefined)	–	inconclusive [inhibitor, single point]
COc1cccc(NC(=O)N(C)C[C@@H]2Oc3cc(Br)ccc3S(=O)(=O)N([C@@H](C)CO)C[C@H]2C)c1	inactive: -8.72%	–
COc1ccc(NC(=O)CC2Nc3ccccc3NC2=O)c([N+](=O)[O-])c1 (centres undefined)	–	inconclusive [inhibitor, single point]
CCOc1ccc(Oc2ccc(C(F)(F)F)cc2N)cc1	–	inconclusive [inhibitor, partial curve, poor fit]
CCC(C)c1ccc(NC(=O)COC(=O)CCNS(=O)(=O)c2cccs2)cc1 (centres undefined)	–	inconclusive [inhibitor, single point]
CCOC(=O)c1ccccc1NC(=O)Cn1c2ncccc2c(=O)n1-c1ccccc1	inactive: -11.2%	–
O=C(CSCCc1ccccn1)Nc1ccc(Br)cn1	inactive: -2.14%	–
C/C(=N\NC(=O)c1ccc([N+](=O)[O-])cc1)c1c(O)cc(C)oc1=O	–	inconclusive [inhibitor, single point]
O=S(=O)(c1ccccc1)C1(C2CC(c3ccccc3)=NO2)CC(O)C1 (centres undefined)	inactive: -4.09%	–

From PubChem BioAssay AID686978 (National Center for Advancing Translational Sciences (NCATS), 2013)
